# Reference: paper PMC4336329 (PLoS ONE, 2015)
# Screen size: about 310,000 compounds; about 2,200 (0.71%) showed an effect of 50% or more. The effect is printed as a negative number. The list shows a part of the results.
# Target: human ether-à-go-go-related gene (hERG) potassium channel (human, UniProt Q12809)
# Experiment: primary screen, population patch clamp on CHO cells stably expressing hERG
# human ether-à-go-go-related gene (hERG) potassium channel, sequence (Q12809 whole entry, looked up): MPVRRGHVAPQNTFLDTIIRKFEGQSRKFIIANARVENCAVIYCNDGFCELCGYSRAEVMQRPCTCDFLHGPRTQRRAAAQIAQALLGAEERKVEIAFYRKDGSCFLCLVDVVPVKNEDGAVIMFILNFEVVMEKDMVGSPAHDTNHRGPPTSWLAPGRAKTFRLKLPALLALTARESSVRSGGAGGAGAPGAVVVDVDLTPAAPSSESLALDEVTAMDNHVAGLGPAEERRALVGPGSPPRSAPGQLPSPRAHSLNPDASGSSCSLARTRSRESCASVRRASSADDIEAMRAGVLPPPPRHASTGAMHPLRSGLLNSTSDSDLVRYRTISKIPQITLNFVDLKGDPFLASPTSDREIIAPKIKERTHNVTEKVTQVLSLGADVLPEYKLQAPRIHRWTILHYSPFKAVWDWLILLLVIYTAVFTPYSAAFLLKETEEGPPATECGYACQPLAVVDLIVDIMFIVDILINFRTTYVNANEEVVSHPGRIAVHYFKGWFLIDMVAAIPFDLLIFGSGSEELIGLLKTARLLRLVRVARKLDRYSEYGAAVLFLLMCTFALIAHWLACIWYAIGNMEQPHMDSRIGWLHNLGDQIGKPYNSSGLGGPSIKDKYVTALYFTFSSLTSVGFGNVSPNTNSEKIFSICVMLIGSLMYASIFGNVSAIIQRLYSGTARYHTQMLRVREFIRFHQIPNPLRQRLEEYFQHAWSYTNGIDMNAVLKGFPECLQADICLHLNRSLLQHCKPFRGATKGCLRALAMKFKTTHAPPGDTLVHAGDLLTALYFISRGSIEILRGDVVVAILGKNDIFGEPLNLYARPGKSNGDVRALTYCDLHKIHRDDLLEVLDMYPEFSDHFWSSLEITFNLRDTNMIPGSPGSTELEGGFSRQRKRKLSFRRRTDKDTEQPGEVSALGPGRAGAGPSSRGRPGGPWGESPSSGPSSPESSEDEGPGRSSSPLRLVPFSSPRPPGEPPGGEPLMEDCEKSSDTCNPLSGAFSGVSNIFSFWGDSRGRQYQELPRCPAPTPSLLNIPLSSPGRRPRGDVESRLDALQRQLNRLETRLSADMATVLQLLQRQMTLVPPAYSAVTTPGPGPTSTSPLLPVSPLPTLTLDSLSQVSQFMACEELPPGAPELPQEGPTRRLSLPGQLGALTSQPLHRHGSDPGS
row,Compound,"hERG current change (%, negative = inhibition) at 1uM"
1,COc1ccc(F)cc1S(=O)(=O)NCCN1CCOCC1,15.2%
2,CC(C)(C)NC(=O)C(c1ccncc1)N(C(=O)CNC(=O)c1ccco1)c1ccc(F)cc1 (stereo not drawn),8.26%
3,CCCc1nc(SCC(=O)Nc2cc(C)on2)c2c(=O)n(C)c(=O)n(C)c2n1,-1.4%
4,Cc1cc(C(=O)CSc2nnc(-c3cccs3)n2Cc2ccccc2)c(C)n1C,-7.66%
5,Cn1cc(Cl)c(C(=O)NNC(=S)Nc2cccc(Cl)c2)n1,8.53%
6,Oc1cccc2ccc(N3CCOCC3)nc12,14.8%
7,COC(=O)c1cc(S(=O)(=O)N2CCN(c3cc(C)ccc3C)CC2)c[nH]1,-2.62%
8,Cc1ccc2c(Cl)c(C(=O)NC3CC3)sc2c1,9.87%
9,Cc1ccc(NC(=O)Nc2ccc3c(c2)CCC3)c(C)c1,11.1%
10,Oc1ccc(CN2CCc3ccccc3C2)c2cccnc12,-6.29%
11,Cc1cc(C(=O)NCc2ccc(F)cc2)c2ccccc2n1,8.77%
12,CCOc1ccc(C(=O)N/N=C/c2cccc3cccnc23)cc1,8.66%
13,Cc1ccc(S(=O)(=O)N2CCCC(C(=O)N3CCC4(CC3)OCCO4)C2)cc1 (stereo not drawn),-2.24%
14,CC1CCN(C(=O)CCC(=O)Nc2nnc(C3CCCCC3)s2)CC1,11.4%
15,C=C1CCC(C)C(C)(CCC2=CCOC2=O)C/C=C\C=C/1C(=O)O (stereo not drawn),11.3%
16,CCCCc1nc(SCC(=O)N2CCOCC2)c2c(=O)n(C)c(=O)n(C)c2n1,5.14%
17,CCC(C)NC(=O)CSc1ncccc1C(=O)O (stereo not drawn),7.29%
18,CCOc1[nH]n(-c2ccccc2)c(=O)c1C=Nc1ccc(Cl)cc1,10.8%
19,COc1cccc(/C=N/NC(=O)c2nnn(-c3nonc3N)c2CN(C)c2ccccc2)c1,12.9%
20,O=C(Nc1ccc(F)cc1)N1CCN(C/C=C/c2ccccc2)CC1,-5.77%
21,CCOC(=O)COc1ccc2c(c1)c(C(C)=O)c(C)n2-c1ccccc1,12.9%
22,O=C(COC(=O)Cc1ccccc1)NC(=O)NC1CCCCC1,10.2%
23,CCOC(=O)Cn1ccc(NC(=O)COc2ccc(F)cc2F)n1,7.27%

row,Compound,"hERG current change (%, negative = inhibition) at 1uM"
1,CCOC(=O)c1c(NC(=O)CSc2nnnn2-c2ccc3c(c2)OCO3)sc(C)c1C,15.1%
2,CCOCCCNC(=O)c1ccc2c(c1)N(Cc1ccccc1)C(=O)CS2=O (stereo not drawn),12.5%
3,O=C(CCS(=O)(=O)c1ccc2c(c1)NC(=O)CO2)NCCc1ccccc1,9.02%
4,CC1=CSC2=NS(=O)(=O)CCN12,13.7%
5,CCN(CC)CCNC(=O)Cn1nc(Cc2cccnc2)c2ccccc2c1=O,5.82%
6,Cc1ccccc1-n1c([C@@H]2C[C@H]2c2ccccc2)n[nH]c1=S,17.5%
7,O=Cc1c(NC2CCCCC2)c2ccccc2[nH]c1=O,6.77%
8,CN(C)CCNc1oc(-c2ccccc2Cl)nc1S(=O)(=O)c1ccccc1,6.86%
9,CC(C)(C)n1nnnc1C(c1ccccn1)N(Cc1ccccc1)Cc1ccc(Cl)cc1 (stereo not drawn),16.8%
10,CC1CCN(C(=O)/C(=C\c2ccccc2)NC(=O)c2ccccc2)CC1,10.2%
11,COc1ccc(NC(=O)c2ccco2)cc1N,7.59%
12,CC(=O)c1ccc(OCC(O)CN2CCCC(C)C2)cc1.Cl (stereo not drawn),5.91%
13,NC(=O)c1ccc2c(=O)n3c(-c4cccs4)csc3nc2c1,16.1%
14,COc1ccc2ccccc2c1/C=N/NC(=S)NCCN1CCOCC1,7.45%
15,CCN(CC)C(=O)Oc1ccc(NC(C)=O)cc1,21.9%
16,CCc1cccc(CC)c1NC(=O)COC(=O)C1(C)CC1(Cl)Cl (stereo not drawn),23.5%
17,Cc1ccc(-c2noc(CCC(=O)Nc3ccc(C)cn3)n2)cc1,8.99%
18,C=CCn1c(SCC(=O)c2ccccc2)nnc1-c1ccc2c(c1)OCO2,1.56%
19,CC(CN1CCOCC1)OC(=O)c1ccc(Br)cc1.Cl (stereo not drawn),-0.655%
20,COc1ccccc1N=c1c2c([N+](=O)[O-])cc([N+](=O)[O-])cc2n(O)n1-c1ccccc1OC,9.41%
21,COc1ccc(C2CC(c3ccccc3)=NN2C(=O)CN2N=NC3C(=O)N(c4cccc(F)c4)C(=O)C32)cc1 (stereo not drawn),17.8%
22,Cc1nc(S(=O)(=O)N(C)c2ccccc2)c(C#N)c(C)c1Cl,12.9%
23,Cc1cc(C)n(CCC(=O)Nc2ccc(-c3ccno3)cc2)n1,8.96%

row,Compound,"hERG current change (%, negative = inhibition) at 1uM"
1,CCCCN=C(N)/C(C(=O)OCC)=C(\O)c1ccc(OC)cc1,-2.55%
2,Cc1ccc2nc(-c3ccc(SCC(=O)Nc4ccc5c(c4)OCCO5)nc3)[nH]c2c1,5.88%
3,O=C(Nc1ccc(N2CCN(C(=O)c3ccccc3)CC2)cc1)c1cccs1,-3%
4,O=C(Cn1nnc(-c2ccc(CN3CCOCC3)cc2)n1)N1CCCc2ccccc21,-13.3%
5,O=C(CCC1CCCN(C(=O)c2cncs2)C1)NCc1ccc(F)c(F)c1 (stereo not drawn),8.79%
6,CCOc1cc(C(=O)OCC(=O)NCc2ccco2)cc(OCC)c1OCC,8.76%
7,CCc1sc(C(C2C(=O)CC(C)(C)CC2=O)C2C(=O)CC(C)(C)CC2=O)cc1[N+](=O)[O-],8.06%
8,Cc1ccc(S(=O)(=O)N2CCC(=O)N(CCOCc3cccc(F)c3)CC2)cc1,7.15%
9,CCCCn1c(CCC)nc([N+](=O)[O-])c1Sc1ccc(Cl)cn1,-14.5%
10,CCc1nc2ccccc2[nH]1,-3.04%
11,CCCc1cc(=O)n2nc(N3CCC(C(=O)N4CCN(c5cccc(OC)c5)CC4)CC3)sc2n1,-12.3%
12,Cc1ccc(NC(=O)C2CCCCC2C(=O)O)cc1Cl (stereo not drawn),2.36%
13,Cc1cc(C)n(CC(=O)NC2CCCCC2C)c(=O)c1C#N (stereo not drawn),5.52%
14,COc1ccc(N/C(N)=N/c2nc(C)c(Cc3ccccc3)c(=O)[nH]2)cc1,16.3%
15,O=C(NC1CCCC1)C1CCCN1C(=O)Nc1ccccc1 (stereo not drawn),16.4%
16,Cc1ccc2cc(C)c(SCC#N)nc2c1,13.9%
17,CN1CCN(CCn2c(=S)[nH]c3ccccc3c2=O)CC1,5.52%
18,CCCCc1ccc(/C=C2/C(=O)ON=C2c2ccccc2)s1,16.2%
19,CNC(=O)CSc1nnc(-c2cc(C)cc(C)c2)o1,6.79%
20,CC(=O)N1c2ccc3ccccc3c2C(C)CC12CCCCC2 (stereo not drawn),6.89%
21,CN(C)S(=O)(=O)N1CCN(c2ccc(Cl)cc2)CC1,5.65%
22,CCc1ccccc1N1C(=O)C2CC(C)=C(C)CC2C1=O (stereo not drawn),15%
23,CCCn1nnnc1NCc1ccc(N(C)C)cc1,10.2%

row,Compound,"hERG current change (%, negative = inhibition) at 1uM"
1,Cc1cc(C)nc(NC(=S)Nc2cccc(Cl)c2Cl)c1,15.2%
2,O=c1[nH]c2ccc(S(=O)(=O)N3CCCCC3)cc2o1,14.3%
3,COc1ccc(S(=O)(=O)N2CCOCC2)cc1NC(=O)c1ccc(OCC(C)C)c(OC)c1,0.239%
4,Cc1cc(C)cc(C(=O)OCC(=O)N2CCCC2)c1,6.37%
5,CCC(C)N(C(=O)COC(=O)c1[nH]c(C)c(C(C)=O)c1C)C1CCS(=O)(=O)C1 (stereo not drawn),-0.629%
6,CCC1=C(OC(=O)N(CC)CC)N2C(=O)OC(=NCC3CC3)[C@]2(Cc2ccccc2)[C@H]2C1=CC[C@H]1C(=O)N(CC(=O)OC)C(=O)[C@H]12,4.88%
7,O=C(O)C(=O)/C(=C\c1ccc(Cl)cc1)c1ccc2ccccc2n1,8.44%
8,CC1CN(C(=O)c2ccc3c(c2)OCO3)CC(C)O1 (stereo not drawn),3.09%
9,Cc1sc2nc(C3CC3)nc(N3CCN(S(=O)(=O)c4ccc(F)cc4)CC3)c2c1C,6.79%
10,O=C(N/N=C\c1cccnc1)c1ccc(Cl)s1,14.7%
11,COc1ccc(NC(=O)CCCn2c(=O)c3sccc3n(Cc3cccc(C)c3)c2=O)cc1,13.1%
12,COc1cc(C=O)ccc1OC(=O)c1cccnc1,13.7%
13,CCOc1ccc(N2CC(C(=O)Nc3ccc(S(=O)(=O)N4CCCCC4)cc3)CC2=O)cc1 (stereo not drawn),11.8%
14,COC(=O)c1nnn(-c2nonc2N)c1CSc1nc2ccccc2s1,-3.01%
15,COc1ccccc1-c1nnc2sc(COc3ccc(Cl)cc3)nn12,7.85%
16,Cc1c(CCOC(=O)CC23CC4CC(CC(C4)C2)C3)sc[n+]1CC(=O)c1ccccc1.[Br-],-6.04%
17,CC1(C)Cc2ccccc2C(=NC(Cc2c[nH]c3ccccc23)C(=O)O)N1 (stereo not drawn),9.1%
18,O=C(/C=C/c1ccc(Cl)cc1Cl)n1cccn1,10.1%
19,CC(C)c1ccc(NC(=O)c2cc3c(=O)n(C)c4ccccc4c3n2C)cc1,12.4%
20,CN(CC(=O)Nc1cccc(F)c1)CC(=O)Nc1ccccc1[N+](=O)[O-],10%
21,O=C(O)CCn1cc(C=C2C(=O)NC(=O)NC2=O)c(-c2cc3ccccc3oc2=O)n1,20.6%
